The whole screen tested about 310,000 compounds, of which about 2,200 (0.71%) showed an effect of 50% or more. Effects have a minus sign here. The list shows a part of the results.
Target: human ether-à-go-go-related gene (hERG) potassium channel (human, UniProt Q12809)
Test: primary screen, population patch clamp on CHO cells stably expressing hERG

human ether-à-go-go-related gene (hERG) potassium channel, sequence (Q12809 whole entry, looked up): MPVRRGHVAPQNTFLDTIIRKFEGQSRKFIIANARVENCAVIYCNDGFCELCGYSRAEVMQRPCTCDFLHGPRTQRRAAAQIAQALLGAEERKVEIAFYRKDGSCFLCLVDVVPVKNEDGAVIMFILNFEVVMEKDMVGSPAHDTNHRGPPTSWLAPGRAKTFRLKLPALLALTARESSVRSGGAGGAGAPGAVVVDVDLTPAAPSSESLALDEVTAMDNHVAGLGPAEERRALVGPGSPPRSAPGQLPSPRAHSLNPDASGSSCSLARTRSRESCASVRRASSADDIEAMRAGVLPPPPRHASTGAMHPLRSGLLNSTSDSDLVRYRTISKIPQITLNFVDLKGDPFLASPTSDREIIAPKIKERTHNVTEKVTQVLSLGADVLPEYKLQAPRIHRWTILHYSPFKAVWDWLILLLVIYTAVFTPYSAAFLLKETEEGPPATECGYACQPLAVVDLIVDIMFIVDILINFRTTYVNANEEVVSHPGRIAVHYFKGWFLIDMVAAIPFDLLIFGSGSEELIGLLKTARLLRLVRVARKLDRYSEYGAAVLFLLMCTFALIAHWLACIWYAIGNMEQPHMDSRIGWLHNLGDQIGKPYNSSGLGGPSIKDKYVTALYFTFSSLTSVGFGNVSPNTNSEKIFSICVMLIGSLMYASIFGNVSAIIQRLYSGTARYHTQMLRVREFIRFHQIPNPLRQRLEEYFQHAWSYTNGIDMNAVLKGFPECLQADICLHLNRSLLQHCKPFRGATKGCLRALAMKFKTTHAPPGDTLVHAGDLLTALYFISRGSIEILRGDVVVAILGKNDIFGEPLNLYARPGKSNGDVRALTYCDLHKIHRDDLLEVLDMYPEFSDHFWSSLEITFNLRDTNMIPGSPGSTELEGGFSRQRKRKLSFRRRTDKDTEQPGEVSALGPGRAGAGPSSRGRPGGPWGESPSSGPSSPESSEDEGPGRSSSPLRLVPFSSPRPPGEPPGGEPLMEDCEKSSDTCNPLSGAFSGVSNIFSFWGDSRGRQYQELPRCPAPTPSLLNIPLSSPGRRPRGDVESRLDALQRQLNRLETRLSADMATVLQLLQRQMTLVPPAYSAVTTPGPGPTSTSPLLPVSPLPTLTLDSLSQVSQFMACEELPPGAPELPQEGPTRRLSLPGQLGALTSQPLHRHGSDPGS

Compared with Cc1cc(Br)ccc1OCC(=O)NNC(=O)c1cnccn1, O=C(c1cc(F)ccc1F)C1CCCN(C(=O)CCc2cnccn2)C1 (stereo not shown) is lower in “hERG current change (%, negative = inhibition) at 1uM” value: 11.9% for the first, 9.15% for the second.

First: O=C(Nc1nnc(C2=COCCO2)o1)c1ccc(S(=O)(=O)N2CCOCC2)cc1
Second: O=C(Nc1nnc(C2=COCCO2)o1)c1cccc(F)c1
The “hERG current change (%, negative = inhibition) at 1uM” value of the first is lower: 12.6% for the first, 18.3% for the second.

Compared with O=C(COC(=O)CCc1ccccc1)NC12CC3CC(CC(C3)C1)C2, CC(C)NC(NC(=O)Cc1ccccc1)C(Cl)(Cl)Cl (stereo not shown) is higher in “hERG current change (%, negative = inhibition) at 1uM” value: 3.43% for the first, 18.1% for the second.

Going from COc1ccc(NS(=O)(=O)c2ccc3c(c2)OCCO3)cc1OC to COc1ccc(S(=O)(=O)Nc2ccc(Cl)cn2)c(C)c1C, the “hERG current change (%, negative = inhibition) at 1uM” value falls from 15.2% to 9.74%.

Going from CCCCn1c(SCc2c(C)noc2C)nc2cc(S(N)(=O)=O)ccc21 to Cc1ccc(Cn2c(SCc3cccnc3)nc3c2c(=O)n(C)c(=O)n3C)cc1, the “hERG current change (%, negative = inhibition) at 1uM” value rises from -2.73% to 10.4%.

Going from Cc1nc2sc(C(c3cccc(F)c3)N3CCC(O)CC3)c(O)n2n1 (stereo not shown) to CCOc1ccc2nc(NC(=O)CN3CCC(n4nnc5cc(F)ccc54)CC3)sc2c1, the “hERG current change (%, negative = inhibition) at 1uM” value rises from 8.15% to 12.9%.

First: CC1CCSP(=O)(Oc2ccccc2)O1 (stereo not shown)
Second: CC1CN(CCCCSc2ccccc2)CC(C)O1.Cl (stereo not shown)
The “hERG current change (%, negative = inhibition) at 1uM” value of the first is lower: 8.97% for the first, 9.79% for the second.

First: COc1ccc(C)cc1S(=O)(=O)N1CCN(C(=O)c2ncoc2-c2cccc(C)c2)CC1
Second: COc1cc(F)ccc1S(=O)(=O)N1CCN(Cc2ccccc2)CC1
The “hERG current change (%, negative = inhibition) at 1uM” value of the first is higher: 13% for the first, 4.64% for the second.

Compared with CCN(CC)C(=O)c1sc(NC(=O)C(Sc2ccccc2)c2ccccc2)c(C(=O)OC(C)C)c1C (stereo not shown), Cc1cc(C)c(NC(=O)CSc2ccc3nnc(CCNC(=O)c4ccccc4)n3n2)c(C)c1 is higher in “hERG current change (%, negative = inhibition) at 1uM” value: 10.8% for the first, 11.5% for the second.

First: COc1ccccc1NC(=O)C/C(N)=N/O
Second: CCOc1ccccc1/C=C(/C#N)C(N)=O
The “hERG current change (%, negative = inhibition) at 1uM” value of the first is lower: 3.05% for the first, 7.24% for the second.

Compared with COc1cc(S(=O)(=O)n2ccc(C)n2)c(OC)cc1Cl, COc1ccc2c(C)cc3nncn3c2c1 is higher in “hERG current change (%, negative = inhibition) at 1uM” value: 9.61% for the first, 16.4% for the second.

Going from CCOCCCNC(=O)Cn1cnc2c(cnn2-c2ccc(F)cc2)c1=O to O=C(NCCCCc1ccccc1)c1ccc(F)cc1, the “hERG current change (%, negative = inhibition) at 1uM” value rises from 2.63% to 6.87%.

Compared with COC(=O)C(NC(=O)c1ccccc1Cl)(Nc1ncc(S(=O)(=O)c2ccc([N+](=O)[O-])cc2)s1)C(F)(F)F (stereo not shown), O=C(COC(=O)c1c2ccccc2cc2ccccc12)Nc1ncc(C(F)(F)F)cc1Cl is lower in “hERG current change (%, negative = inhibition) at 1uM” value: 6.15% for the first, 3.82% for the second.

Compared with Cc1cc(C)cc(NS(=O)(=O)c2ccc3[nH]cc(C(=O)NCc4ccco4)c(=O)c3c2)c1, Cc1cccc(N2CCN(C(=O)CCS(=O)(=O)c3ccc4c(c3)oc(=O)n4C)CC2)c1C is higher in “hERG current change (%, negative = inhibition) at 1uM” value: -6.66% for the first, 1.7% for the second.

Compared with CCNC(=S)Nc1cc2oc3ccccc3c2cc1OC, O=C(NC(=S)Nc1ccccc1O)c1ccc(-c2ccc(Cl)cc2)o1 is lower in “hERG current change (%, negative = inhibition) at 1uM” value: 10.7% for the first, 10.6% for the second.

Going from COc1ccc(C(=O)C2CCCN(Cc3cccn3-c3ccccn3)C2)cc1F (stereo not shown) to O=C(CCCn1c(=O)[nH]c2ccccc2c1=O)N1CCN(c2ccccn2)CC1, the “hERG current change (%, negative = inhibition) at 1uM” value rises from -87.1% to 15.5%.

Compared with Fc1ccc(C2CCCN2Cc2nc(Cc3ccccc3)no2)cc1 (stereo not shown), Cc1ccc(-c2csc(N3CCC[C@@H]3C(=O)NCCn3c(C(F)(F)F)nc4ccccc43)n2)cc1 is higher in “hERG current change (%, negative = inhibition) at 1uM” value: 8.24% for the first, 8.6% for the second.

First: N#Cc1c(NC(=O)c2ccco2)sc2c1CCC2
Second: Cc1ccc(CN(C(=O)c2csnn2)C(C(=O)NC2CCCC2)c2ccco2)cc1 (stereo not shown)
The “hERG current change (%, negative = inhibition) at 1uM” value of the first is lower: -10.5% for the first, 1.26% for the second.

Going from O=C(Oc1c(-c2ccccc2)oc2ccccc2c1=O)c1ccccc1 to O=C(NNC(=O)c1ccccc1OCc1ccccc1)c1ccccc1F, the “hERG current change (%, negative = inhibition) at 1uM” value rises from -2.89% to 14.9%.

First: COc1ccc(C(CNC(=O)c2cc3ccccc3o2)N2CCCC2)cc1 (stereo not shown)
Second: Cc1cc(=O)oc2cc(OCC(=O)N3CCN(C(C)c4ccccc4)CC3)c(Cl)cc12 (stereo not shown)
The “hERG current change (%, negative = inhibition) at 1uM” value of the first is lower: 3.52% for the first, 4.74% for the second.

First: Cc1cc2c(cc1C)C(c1ccccc1Br)CC(=O)N2 (stereo not shown)
Second: Cc1ccc(CN2CC(=O)N3[C@H]4c5cc(C)ccc5OC[C@@H]4[C@H](c4ccccc4)[C@]3(C)C2=O)cc1
The “hERG current change (%, negative = inhibition) at 1uM” value of the first is higher: 13.7% for the first, 11.3% for the second.

Going from CS(=O)(=O)N1CCC(Oc2ccccc2C(=O)NC(C2CC2)C2CC2)CC1 to COc1ccccc1CC(NC(C)=O)C(=O)NC1CCN(C(=O)Nc2ccccc2C)CC1 (stereo not shown), the “hERG current change (%, negative = inhibition) at 1uM” value rises from -12.8% to 1.1%.

First: Nc1nc2c(ncn2[C@H]2C[C@H](O)[C@@H](CO)O2)c(=O)[nH]1.O
Second: O=C(COC(=O)C1C2CC3OC(=O)C1C3C2)Nc1cccc(Cl)c1 (stereo not shown)
The “hERG current change (%, negative = inhibition) at 1uM” value of the first is higher: 9.22% for the first, 2.31% for the second.

First: CCOC(=O)c1cc(C)nc(SC)c1C#N
Second: COC(=O)c1ccc(COc2cc(C)ccc2C)o1
The “hERG current change (%, negative = inhibition) at 1uM” value of the first is lower: 10.3% for the first, 16.8% for the second.

Going from O=C(Cn1cc([N+](=O)[O-])cn1)N1CCCc2ccccc21 to Cn1nccc1C(=O)NC1CCCc2c1cnn2-c1ccccc1F (stereo not shown), the “hERG current change (%, negative = inhibition) at 1uM” value rises from 8.12% to 19.2%.

Going from CC(=O)c1ccc(OCC(=O)N(C2CCCCC2)C2CCS(=O)(=O)C2)cc1 (stereo not shown) to CN(CC(=O)Nc1ccccc1C(F)(F)F)C(=O)CN1C(=O)C2CCCCC2C1=O (stereo not shown), the “hERG current change (%, negative = inhibition) at 1uM” value rises from 7.85% to 12.5%.

First: O=C(Cn1ccccc1=S)c1ccc(Cl)c(Cl)c1
Second: Cc1ccc(C(=O)CSc2ccccc2C(=O)O)cc1
The “hERG current change (%, negative = inhibition) at 1uM” value of the first is higher: 9.54% for the first, 7.05% for the second.

Compared with CCOc1ccc(S(=O)(=O)NCCOC)cc1C, COc1ccc(S(=O)(=O)NCC(=O)N(CC(=O)NCC2CCCO2)Cc2ccc(F)cc2)cc1 (stereo not shown) is lower in “hERG current change (%, negative = inhibition) at 1uM” value: 14.6% for the first, 6.74% for the second.

First: CC(=O)OCc1c(-c2ccccc2)c2cc([N+](=O)[O-])ccc2n1C
Second: COCc1c(C(=O)OCC(=O)N2c3ccccc3CC2C)oc2ccccc12 (stereo not shown)
The “hERG current change (%, negative = inhibition) at 1uM” value of the first is lower: 13.4% for the first, 13.9% for the second.

Going from COc1cc(OC)c(C2C(C#N)=C(C)NC(C)=C2C#N)c(C(=O)O)c1 to CCOC(=O)c1c(C)n(C)c2ccc(OC)c(NC(=O)CN3CCC4(CC3)OCCO4)c12, the “hERG current change (%, negative = inhibition) at 1uM” value falls from 14% to 3.27%.

Going from C/C(=N\NC(=O)CSc1nc2nc(C)cc(C)n2n1)c1ccccc1 to Cc1cccc(-n2cnc(C(=O)N/N=C/c3ccccc3)c2)n1, the “hERG current change (%, negative = inhibition) at 1uM” value rises from -6.54% to 9.93%.

Compared with CCCCNC(=O)CSc1nc(O)cc(=O)n1C1CCCC1, Cn1c(COc2ccc([N+](=O)[O-])cc2)nnc1SCC(=O)NCC1CCCO1 (stereo not shown) is higher in “hERG current change (%, negative = inhibition) at 1uM” value: 1.53% for the first, 6.05% for the second.

Going from NS(=O)(=O)c1ccc(CCNC(=O)CN2CCN(c3cccc(Cl)c3)CC2)cc1 to CN(c1ccc(OCC(=O)N2CCOCC2)cc1)S(=O)(=O)c1ccc(F)cc1, the “hERG current change (%, negative = inhibition) at 1uM” value rises from -3.34% to 9.65%.

Going from C/C=C1\COC(C(=O)NCc2ccccc2)(C(F)(F)F)C=C1C=C(C)C (stereo not shown) to CC1=CC(=C2C(=O)NC(=O)NC2=O)C=C(C(F)(F)F)N1Cc1ccccc1, the “hERG current change (%, negative = inhibition) at 1uM” value rises from 8.32% to 11.4%.

Compared with CCc1nnc(NC(=O)CN2C(=O)NC3(CC(C)CC(C)(C)C3)C2=O)s1 (stereo not shown), Cc1cc(C(=O)O)ccc1-c1ccc(/C=C2\SC(=O)N(CC(=O)Nc3ccc4c(c3)OCO4)C2=O)o1 is higher in “hERG current change (%, negative = inhibition) at 1uM” value: 11.3% for the first, 12.8% for the second.

Going from COc1ccc(OCCN(C)CC(=O)Nc2c(C)cccc2C)cc1.O=C(O)C(=O)O to COc1ccc(C/C(=N\O)c2ccc(OC)cc2)cc1, the “hERG current change (%, negative = inhibition) at 1uM” value rises from 7.39% to 10.3%.

Going from CCc1ccc2nc(N(CCCN(C)C)C(=O)c3ccc(S(=O)(=O)N4CCCc5ccccc54)cc3)sc2c1.Cl to Clc1ccc(SCc2cc(N3CCOCC3)nc(-c3ccccn3)n2)cc1, the “hERG current change (%, negative = inhibition) at 1uM” value falls from 6.07% to -1.17%.

First: CSc1ccc(/C=N\Nc2nncn2N)cc1.Cl
Second: C=CCNC(=O)/C(C#N)=C/c1c(C)nn(-c2ccc(Cl)cc2)c1Cl
The “hERG current change (%, negative = inhibition) at 1uM” value of the first is higher: 13.8% for the first, 13.4% for the second.

Compared with CC(=O)NCCc1nc(-c2ccc(Cl)cc2)no1, COc1ccc(-c2nc(C)ncc2-c2ccc(Cl)cc2)c(O)c1 is lower in “hERG current change (%, negative = inhibition) at 1uM” value: 10.3% for the first, -5.49% for the second.

Going from C/C(=N/NC(=O)c1ccc(Br)o1)C(C)C to CC(C)(C)OC(=O)N[C@H](C(=O)OC(C)(C)C)c1ccc2c(c1)OCO2, the “hERG current change (%, negative = inhibition) at 1uM” value falls from 7.95% to 2.84%.

First: CC(C)(O)C#Cc1ccc(CN2CCC(n3nccc3NC(=O)C3CC3)CC2)cc1
Second: CN1CCC(N(C)C(=S)Nc2ccc(F)cc2)CC1
The “hERG current change (%, negative = inhibition) at 1uM” value of the first is lower: 6.7% for the first, 11.4% for the second.

Compared with CCCCCCCCC(=O)NC(NC(=S)N1CCOCC1)C(Cl)(Cl)Cl (stereo not shown), CC(C)=CC(=O)N1CCCC(N2CCN(c3ccc(F)cc3)CC2)C1 (stereo not shown) is higher in “hERG current change (%, negative = inhibition) at 1uM” value: 12.2% for the first, 19.1% for the second.

Compared with CCCNC(=O)c1onc(CSc2ccc(F)c(F)c2)c1C(=O)NCCC, CCOC(=O)c1cc(NC(=O)C2C3CCC(O3)C2C(=O)O)cc(C(=O)OCC)c1 (stereo not shown) is higher in “hERG current change (%, negative = inhibition) at 1uM” value: -9.42% for the first, -0.572% for the second.

First: CCSc1nc(-c2ccccc2)nc(C(Cl)Cl)n1
Second: c1ccc2oc(-c3[nH]ncc3CN3CCSCC3)cc2c1
The “hERG current change (%, negative = inhibition) at 1uM” value of the first is lower: 1.76% for the first, 9.72% for the second.

From article PMC4336329 (PLoS ONE, 2015)
